Reference: the supplement of paper PMC12217912
Some of the results follow. The full chains were built here from the parent and the listed change. Inactive controls read about 0.05.

B1: TEV protease; numbered along this chain (parent)
chain: MGESLFKGPRDYNPISSSICHLTNESDGHTTSLYGIGFGPFIITNKHLFRRNNGTLVVQSLHGVFKVKDTTTLQQHLVDGRDMIIIRMPKDFPPFPQKLKFREPQREERICLVTTNFQTKSMSSMVSDTSCTFPSGDGIFWKHWIQTKDGQCGSPLVSTRDGFIVGIHSASNFTNTNNYFTSVPKNFMELLTNQEAQQWVSGWRLNADSVLWGGHKVFMVKPEEPFQPVKEATQL

Variants of: B1
Experiment: raw area under fraction-flipped curve 0-4 h after induction (AUC4h, not background-subtracted), DNA-recorder readout of cleavage of the substrate (dimensionless); higher = more cleavage of the substrate by the protease variant
Conditions: temperature: 34 °C; time window: 0-4 h after rhamnose induction
Procedure: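 In vivo DNA recorder in E. coli TOP10(DE3) ΔrhaA at 34 °C. Each TEVp single-site mutant (parent TEVp 0) is paired with a single-site variant of the 7-mer TEVs (canonical ENLYFQ|S). The substrate sits between flexible linkers in a Bxb1-sfGFP-TEVs-SsrA fusion, so cleavage stabilises Bxb1 and speeds flipping of a recombination array, read by NGS. The value is the raw area under the fraction-flipped curve over 0-4 h after rhamnose induction (AUC4h), with ≥20 reads per time point. It is not background-subtracted; inactive controls average about 0.047.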
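Note: Bxb1 expression induced with 0.2% (w/v) L-rhamnose at OD600 near 0.5, cultures sampled hourly, flipped fraction per protease–substrate barcode pair counted by paired-end Illumina sequencing.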

Variant	area with substrate ENLAFQS	area with substrate ENLDFQS	area with substrate ENLEFQS	area with substrate ENLFFQS	area with substrate ENLHFQS	area with substrate ENLIFQS	area with substrate ENLKFQS	area with substrate ENLMFQS	area with substrate ENLNFQS	area with substrate ENLPFQS	area with substrate ENLQFQS	area with substrate ENLRFQS	area with substrate ENLSFQS	area with substrate ENLWFQS	area with substrate ENLCFQS	area with substrate ENLLFQS	area with substrate ENLVFQS	area with substrate ENLGFQS	area with substrate ENLTFQS
I85V	0.0542	0.0624	0.0684	0.0772	0.0667	0.0759	0.0583	0.12	0.0676	0.0514	0.0548	0.065	0.062	0.0701	–	–	–	–	–
I86E	0.0466	0.032	–	0.0352	0.036	–	0.0393	–	0.0478	0.0347	–	0.0388	0.057	0.0365	0.0363	0.0325	–	–	–
K90L	0.0706	0.0725	0.0805	0.0831	0.116	–	0.0749	0.0697	0.0643	–	–	0.0621	0.0644	–	0.0645	0.0665	0.099	–	–
K100S	0.0649	0.0433	0.0671	0.0819	0.0668	0.0986	0.0737	0.0688	0.0639	0.0583	0.0656	0.0732	0.0962	–	0.0698	–	0.0911	0.0711	0.0395
R102D	0.0334	0.0509	–	0.0819	0.0382	–	0.0478	0.0473	–	0.0528	0.0359	0.0476	0.0491	–	0.0472	–	0.054	–	–
R102W	0.0552	0.0509	0.0537	0.0568	0.0549	–	0.0513	0.0706	0.0557	0.0426	0.0521	–	0.0553	–	–	0.02	0.0378	–	–
E103W	0.0515	0.0602	0.0682	0.0688	0.0644	0.0682	0.0625	0.0638	0.0799	0.059	0.0587	0.0694	0.0573	0.0587	–	0.0687	0.0821	0.0439	0.0814
Q105A	0.0768	0.0603	0.0587	0.116	0.0695	–	0.0791	0.0496	0.064	0.0514	0.0667	0.0749	0.0532	0.0573	–	0.0593	–	–	–
R106H	0.0683	0.067	0.0655	0.0883	0.0714	0.0636	0.0732	–	0.0777	0.0649	0.0748	0.0724	0.0655	0.0728	0.0876	0.079	0.0798	0.0846	–
R106W	0.0729	0.0624	0.0636	0.0802	0.0858	0.0745	0.0754	0.065	0.0668	0.0676	0.0704	0.0757	0.062	0.0542	0.0687	0.115	0.0805	0.0858	–
E107M	0.0586	–	–	0.0698	–	0.053	0.0696	0.0532	–	0.0498	0.0641	0.0757	0.0722	–	0.0923	–	–	0.0748	–
E107S	0.064	0.0653	–	0.0908	0.0664	–	0.0674	0.0786	0.0656	0.0422	0.0627	0.0703	0.069	0.0644	0.0801	0.0732	0.0648	0.0584	0.067
